Some test systems named below: SkMel30; SkMel5; UACC257; UACC62; WM115; WM1716; WM1745; WM3526; WM3619; WM451Lu.
Common to all, as to assay: cell count relative to DMSO control; melanoma cells; higher = more viable cells
What all share (settings): library dose: standard library concentration; 72 h

Molecules are shown by their SMILES. This is one part of the list. Repeats are few or missing, and single values can be far off.
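Note: cells treated in 1,536-well plates, then fixed and DAPI-stained, with nuclei counted from automated high-throughput microscope images.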

For `COc1ccc(-c2ccc3c(N4CCOCC4)nc(N4C[C@@H](C)O[C@@H](C)C4)nc3n2)cc1CO` + O=S(=O)(c1ccccc1)N(CC(F)(F)F)c1ccc(C(O)(C(F)(F)F)C(F)(F)F)cc1 [T0901317] (first compound 0.1 µM, partner dose 7 µM), the cell count was found to be 71.7% in the experiment on SkMel30; 59.2% with SkMel5; 67.6% with UACC257; 75.5% in the experiment with UACC62; 70.7% with WM115; 82.2% in the experiment with WM1716. Moreover, the cell count in the experiment on WM1745 came to 78.1%; in the experiment with WM3526, 66.9%; in the experiment with WM3619 it was 60.4%; in the experiment with WM451Lu, 76.9%.

With `COc1ccc2c(c1)CCC1C2CCC2(C)C(NCCCCCCN3C(=O)C=CC3=O)CCC12` (stereo not given) + O=S(=O)(c1ccccc1)N(CC(F)(F)F)c1ccc(C(O)(C(F)(F)F)C(F)(F)F)cc1 [T0901317] (first compound 2 µM, partner dose 7 µM), the cell count in the experiment with SkMel30 was 79.9%; in the experiment with SkMel5 it was 63%; with UACC257, 75.6%; with UACC62, 74.3%; in the experiment with WM115, 85.3%; in the experiment with WM1716 it was 64.9%. In addition, the cell count in the experiment with WM1745 was determined as 65.4%; with WM3526, 80.3%; with WM3619 it was 69%; in the experiment on WM451Lu, 76.1%.

Take `c1cc(-c2cnn3cc(-c4ccc(OCCN5CCCCC5)cc4)cnc23)ccn1` [Dorsomorphin] + CC(C)CCN1c2nc(Nc3cc(F)c(O)c(F)c3)ncc2N(C)C(=O)C1C [BID1870] (first compound 2 µM, partner dose 1 µM): the cell count in the experiment on SkMel30 came to 70.4%; with SkMel5, 54.8%; in the experiment with UACC257, 76%; in the experiment on UACC62 it was 58.7%; in the experiment on WM115, 82.2%; in the experiment with WM1716, 64.9%. In addition, the cell count in the experiment on WM1745 was 55.4%; with WM3526 it was 56.6%; with WM3619 it was 59.6%; with WM451Lu, 54%.

On to `N#Cc1c(O)c2c(-c3ccc(-c4ccccc4O)cc3)csc2[nH]c1=O` + COc1cc(N2CCC(N3CCN(C)CC3)CC2)ccc1Nc1ncc(Cl)c(Nc2ccccc2S(=O)(=O)C(C)C)n1 [NVP-TAE684] (first compound 10 µM, partner dose 0.4 µM), for which the cell count was 123% in the experiment on SkMel30; 71% with SkMel5; 89.6% in the experiment with UACC257; 114% in the experiment on UACC62; 131% with WM115; 99.2% with WM1716. The cell count is 65.7% in the experiment on WM1745, 74.6% in the experiment on WM3526, 93% with WM3619 and 80.1% in the experiment on WM451Lu.

For `Oc1cc(-c2nc(-c3ccccc3)[nH]c2-c2ccncc2)ccc1Cl` + CCCCCCCCCCCC1=C(O)C(=O)C=C(O)C1=O [Embelin] (first compound 1 µM, partner dose 6 µM), the cell count in the experiment on SkMel30 was 80.7%; with SkMel5, 88.1%; in the experiment on UACC257, 79.5%; in the experiment on UACC62, 55.7%; with WM115, 59.2%; with WM1716, 79%. Further, the cell count was determined as 65.4% in the experiment on WM1745, 55.1% in the experiment on WM3526, 70.1% in the experiment on WM3619 and 61.9% in the experiment on WM451Lu.

For the compound `Oc1nc(-c2ccc(C(F)(F)F)cc2)nc2c1CSCC2` + COc1cc(N2CCC(N3CCN(C)CC3)CC2)ccc1Nc1ncc(Cl)c(Nc2ccccc2S(=O)(=O)C(C)C)n1 [NVP-TAE684] (first compound 10 µM, partner dose 0.4 µM), the cell count was determined as 130% in the experiment on SkMel30; 71.1% in the experiment on SkMel5; 76.8% with UACC257; 86.8% in the experiment on UACC62; 76% in the experiment with WM115; 78.4% in the experiment on WM1716. Besides, the cell count in the experiment with WM1745 was 45%; with WM3526, 86.3%; with WM3619 it was 67.8%; with WM451Lu, 91.3%.

On to `O=C(O)C(=O)Nc1sc2c(c1C(=O)O)CCNC2` + COc1cc(N2CCC(N3CCN(C)CC3)CC2)ccc1Nc1ncc(Cl)c(Nc2ccccc2S(=O)(=O)C(C)C)n1 [NVP-TAE684] (first compound 8.33333 µM, partner dose 0.4 µM), for which the cell count was 120% with SkMel30; 71.9% in the experiment on SkMel5; 86.8% in the experiment with UACC257; 83.3% in the experiment on UACC62; 90.9% with WM115; 83.1% in the experiment with WM1716. The cell count in the experiment on WM1745 is 43.1%; in the experiment with WM3526, 95.5%; in the experiment with WM3619, 85.3%; in the experiment on WM451Lu it was 93.4%.

On to `Oc1cc(-c2nc(-c3ccccc3)[nH]c2-c2ccncc2)ccc1Cl` + Oc1nc(-c2ccc(C(F)(F)F)cc2)nc2c1CSCC2 [XAV939] (first compound 1 µM, partner dose 10 µM), for which the cell count in the experiment with SkMel30 is 95.2%; in the experiment with SkMel5, 86.1%; in the experiment on UACC257 it was 87.2%; in the experiment on UACC62, 70.4%; in the experiment on WM115 it was 62.1%; in the experiment on WM1716, 66.1%. Further, the cell count in the experiment with WM1745 worked out at 55.2%; in the experiment with WM3526 it was 62.1%; in the experiment with WM3619, 65.3%; in the experiment on WM451Lu, 64.4%.

As to `N#Cc1c(O)c2c(-c3ccc(-c4ccccc4O)cc3)csc2[nH]c1=O` + CCCCCCCCCCCC1=C(O)C(=O)C=C(O)C1=O [Embelin] (first compound 10 µM, partner dose 6 µM), the cell count in the experiment with SkMel30 came out at 140%; in the experiment with SkMel5, 108%; in the experiment on UACC257, 101%; in the experiment with UACC62 it was 110%; in the experiment with WM115, 115%; with WM1716, 84.7%. Also, the cell count turned out to be 102% with WM1745, 103% in the experiment with WM3526, 99.7% in the experiment on WM3619 and 99.6% with WM451Lu.

As for `O=C(O)C(=O)Nc1sc2c(c1C(=O)O)CCNC2` + CC(C)CCN1c2nc(Nc3cc(F)c(O)c(F)c3)ncc2N(C)C(=O)C1C [BID1870] (first compound 8.33333 µM, partner dose 1 µM), the cell count in the experiment with SkMel30 turned out to be 78.1%; in the experiment on SkMel5, 56.7%; in the experiment on UACC257, 78%; with UACC62 it was 88.7%; in the experiment with WM115, 93.9%; in the experiment on WM1716, 83.6%. Besides, the cell count in the experiment with WM1745 came to 117%; with WM3526, 58.4%; in the experiment with WM3619, 85.3%; with WM451Lu it was 84.5%.

Turning to `CCN(CC)CCCCNc1ncc2cc(-c3cc(OC)cc(OC)c3)c(NC(=O)NC(C)(C)C)nc2n1` + O=S(=O)(c1ccccc1)N(CC(F)(F)F)c1ccc(C(O)(C(F)(F)F)C(F)(F)F)cc1 [T0901317] (first compound 0.5 µM, partner dose 7 µM), the cell count came out at 80.7% in the experiment with SkMel30; 72.3% in the experiment with SkMel5; 93.3% with UACC257; 62.7% with UACC62; 111% with WM115; 98% in the experiment on WM1716. Further, the cell count in the experiment on WM1745 was determined as 70.2%; in the experiment on WM3526, 91.2%; with WM3619, 73.2%; with WM451Lu it was 83.5%.

On to `COc1ccc2c(c1)CCC1C2CCC2(C)C(NCCCCCCN3C(=O)C=CC3=O)CCC12` (stereo not given) + Cn1cc(/C=C2\C(=O)Nc3cccnc32)c2ccccc21 [GW441756] (first compound 2 µM, partner dose 2 µM), for which the cell count turned out to be 112% in the experiment on SkMel30; 62.7% with SkMel5; 86.1% with UACC257; 84.3% with UACC62; 76.1% in the experiment with WM115; 72.7% with WM1716. Besides, the cell count in the experiment on WM1745 was determined as 70.8%; in the experiment on WM3526, 83.2%; in the experiment with WM3619, 94.8%; with WM451Lu it was 86.9%.

The values are drawn from the supplement of paper PMC4604168 (melanoma cell lines).
